Results published in article PMC11094772 (Protein Science : A Publication of the Protein Society, 2024).

Biological target: the molecule itself
Experiment: SEC

B1: MBP-BRAF(S365A) (natural protein)
chain: not shown
In the case of B1, the “stoichiometry N” value is reported as 2.
